{
  "source": "PubChem BioAssay AID938",
  "about": "(National Center for Advancing Translational Sciences (NCATS), 2007)",
  "note": "Several values for one entry are separate records, joined by “and”; a condition that tells them apart may be missing. Equal entries are not always repeated. About 1,800 (2.5%) of roughly 73,000 compounds were called active. About 13% were inconclusive and are not listed. Calls follow the shape of the dose curve; as a rule, active = well fitted activation curve with a large enough effect; inconclusive = small, poorly fitted or top-dose-only effect; inactive = no such curve, though single readings can be large or run the other way. The list shows a part of the results, in another mix than the full data. Potency is read from the fitted curve at half-maximal effect.",
  "data": [
    {"assay": "qHTS Assay for Agonists of the Thyroid Stimulating Hormone Receptor: Activators of Intracellular cAMP Concentrations in Parental HEK 293; also: nearly all actives have a fitted effect of over 55% in size; as to activation: % of control where 0% means no effect", "settings": "parental HEK293 CNG cAMP sensor, membrane potential fluorescence; series mostly up to 57.1 µM; activation: at the top concentration", "summary_of_the_method": "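Parental HEK 293 cells stably expressing a modified CNG channel (no TSHR) report cAMP rise as membrane depolarization. Membrane potential dye with 100 uM RO 20-1724 was loaded for 60 min at room temperature, then compound added for 30 min; fluorescence read at 590 nm.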", "values": [
      {"molecule": "C[C@@H]1CC[C@H]2C(=O)N3[C@@H](CC[C@@H](C)[C@@H]3c3ccc(Br)cc3)C(=O)N2[C@@H]1c1ccc(Br)cc1", "activation": "inactive: 1.49% [at 11.4 µM]"},
      {"molecule": "CN1CCc2cc(Cl)c(O)cc2[C@@H](c2ccccc2)C1", "Potency": "active: 25.1 µM"},
      {"molecule": "Cc1cc(=O)oc2cc(O)cc(O)c12", "activation": "inactive: 11.8%"},
      {"molecule": "CC(=O)Oc1ccccc1C(=O)O", "Potency": "inactive"},
      {"molecule": "N[C@@H](Cc1c[nH]c2ccc(O)cc12)C(=O)O", "activation": "inactive: 11.6%"},
      {"molecule": "COC(=O)COC(=O)c1ccc(-n2nnnc2SC)cc1", "activation": "inactive: -63.9%"},
      {"molecule": "CC(=O)O[C@]1(C(C)=O)CC[C@@H]2[C@@H]3C=C(Cl)C4=CC(=O)[C@H]5C[C@@H]5[C@]4(C)[C@H]3CC[C@]21C", "Potency": "inactive"},
      {"molecule": "CC(=O)Nc1sc2c(c1C(=O)N1CCOCC1)CCCCC2", "activation": "inactive: -68.9%"},
      {"molecule": "CC(=O)Nc1ccc(C(=O)OC2CCOC2=O)cc1", "note": "(configuration not stated)", "activation": "inactive: -33.8%"},
      {"molecule": "C[C@@](N)(C(=O)O)c1ccc(C(=O)O)cc1", "Potency": "inactive"},
      {"molecule": "Cc1ccc(S(=O)(=O)NCc2ccc(C(=O)N3CCN(c4ccccn4)CC3)cc2)cc1", "activation": "inactive: -53.8%"},
      {"molecule": "COc1ccccc1NC(=O)CSc1ccc2nnc(-c3ccncc3)n2n1", "activation": "inactive: -40.2%"},
      {"molecule": "O=c1[nH]c(-c2ccc(Cl)cc2)nc2c1cnn2-c1ccccc1", "activation": "inactive: -4.38%"},
      {"molecule": "N[C@@H]1CONC1=O", "Potency": "inactive"},
      {"molecule": "OCC1OC(/C=C\\c2ccccc2)C=CC1Oc1ccc2c(c1)OCO2", "note": "(configuration not stated)", "Potency": "active: 3.98 µM"},
      {"molecule": "COC(=O)[C@@H]1C[C@H]1[C@@H](NC(=O)Oc1ccc(F)cc1)c1ccccc1", "Potency": "active: 10 µM"},
      {"molecule": "CCN1C(=O)/C(=C2\\SC(=S)N(CCCOC)C2=O)c2ccccc21", "activation": "inactive: -68.5%"},
      {"molecule": "COc1cc(S(=O)(=O)N2CCCCCC2)c(OC)cc1Br", "Potency": "active: 15.8 µM"},
      {"molecule": "C/C(=C\\c1ccco1)C1Nc2cccc3cccc(c23)N1", "activation": "inactive: -62%"},
      {"molecule": "N#CC(C#N)=c1ccc2c(c1)N1C3=C(CCCC3)CC3CCCCC31N=2", "note": "(configuration not stated)", "activation": "inactive: -86.9%"},
      {"molecule": "O=[N+]([O-])c1cc(N(CCO)CCO)ccc1NCCO", "activation": "inactive: 25.4%"},
      {"molecule": "CC(=O)NC1CC2CCCC(C1)N2C(=O)Nc1ccc(Cl)c(C(F)(F)F)c1", "note": "(configuration not stated)", "activation": "inactive: -68.5%"},
      {"molecule": "CCC1CCCCN1C(=O)CSc1nnc(CNC(=O)c2cc(OC)c(OC)c(OC)c2)o1", "note": "(configuration not stated)", "activation": "inactive: -2.62%"},
      {"molecule": "NCCCCCCNS(=O)(=O)c1cccc2c(Cl)cccc12", "activation": "inactive: 17.8%"},
      {"molecule": "COCCN1C(=O)C(CC(=O)Nc2ccc(C(C)=O)cc2)SC1=Nc1ccccc1", "note": "(configuration not stated)", "activation": "inactive: -34.2%"},
      {"molecule": "CCCc1cc(=O)[nH]c(=S)[nH]1", "Potency": "inactive"},
      {"molecule": "CC(=O)Nc1ccc(OC(=O)c2cccs2)cc1", "activation": "inactive: -32.7%"},
      {"molecule": "CCC(O)C(C)(C)C", "note": "(configuration not stated)", "activation": "inactive: -31%"},
      {"molecule": "O=C(Nc1ccccc1)c1cc([N+](=O)[O-])ccc1Cl", "Potency": "inactive"},
      {"molecule": "CCOC(=O)c1ccc(NC(=O)Nc2ccc3c4c(cccc24)C(=O)N3CC)cc1", "activation": "inactive: -31.9%"},
      {"molecule": "CCOC(=O)c1sc2nc(N3CCCC3)c3c(c2c1N)CC(C)(C)OC3", "activation": "inactive: -32.8%"},
      {"molecule": "CCOC(=O)c1ccc(Oc2nc(NC(C)(C)C)nc(N(C)C)n2)cc1", "Potency": "active: 25.1 µM"},
      {"molecule": "COc1ccccc1-c1nc(N2CCN(C)CC2)c2ccccc2n1", "activation": "inactive: -30.9%"},
      {"molecule": "Cn1ncc(C#N)c1NC(=O)C1CC(c2c(F)cccc2Cl)=NO1", "note": "(configuration not stated)", "activation": "inactive: 3.8%"},
      {"molecule": "C[C@@H](C(=O)NCc1ccccc1)[C@@H]1C[C@@]1(C)[C@@H](NC(=O)OCc1ccccc1)c1ccccc1", "activation": "inactive: 11.6%"},
      {"molecule": "CCOC(=O)c1cc2cc(F)ccc2nc1C", "activation": "inactive: 8.35%"},
      {"molecule": "O=C(O)c1cc(O)c2c(c1)C(=O)c1cccc(O)c1C2=O", "activation": "inactive: -21.5%"},
      {"molecule": "O=[N+]([O-])c1ccccc1S(=O)(=O)NCC1CCC(CNCC2CCc3ccccc3C2)CC1", "note": "(configuration not stated)", "activation": "inactive: -92.3%"},
      {"molecule": "O=C(NCc1ccc2c(c1)OCO2)c1nn(-c2ccccc2)c(=O)c2ccccc12", "Potency": "active: 25.1 µM"},
      {"molecule": "Cc1cc2c(nn1)CCC/C2=N\\O", "activation": "inactive: -65.5%"},
      {"molecule": "O=C(O)CN(CC(=O)O)CC(=O)O", "activation": "inactive: 27.5%"},
      {"molecule": "CO/N=C(\\C(=O)N[C@@H]1C(=O)N2C(C(=O)O)=C(COC(N)=O)CS[C@@H]12)c1ccco1", "activation": "inactive: 1.08% [at 25.6 µM]"},
      {"molecule": "c1coc(-c2nc3nc4ccccc4n3nc2-c2ccco2)c1", "activation": "inactive: -37.8%"},
      {"molecule": "COc1ccc(Cn2nnnc2C(C(C)C)N2CCN(c3ccccc3OC)CC2)cc1", "note": "(configuration not stated)", "Potency": "active: 12.6 µM"},
      {"molecule": "Cc1ccc(N(C)C)cc1", "activation": "inactive: 8.57%"},
      {"molecule": "CCCCC1CN2C(CCC(C)C2c2ccc(Br)cc2)C(=O)O1", "note": "(configuration not stated)", "activation": "inactive: 28.3% [at 11.4 µM] and inactive: 23.8% [at 11.4 µM] and inactive: 15.3% [at 11.4 µM]"},
      {"molecule": "COc1cc2c(cc1O)CCC1C2CC[C@@]2(C)C1CC[C@@H]2O", "note": "(some centres not stated)", "activation": "inactive: 22.5%"},
      {"molecule": "COC(=O)c1[nH]c2ccc(Br)cc2c1NC(=O)C(C)N1CCN(C2CCCCC2)CC1", "note": "(configuration not stated)", "activation": "inactive: -77.7%"},
      {"molecule": "CCCCC#Cc1nc(N)c2ncn([C@@H]3O[C@@H](C(=O)NCC)[C@H](O)[C@@H]3O)c2n1", "Potency": "active: 2 µM"},
      {"molecule": "CC(Sc1ncc(C#N)c(N)n1)C(=O)Nc1ccccc1", "note": "(configuration not stated)", "Potency": "active: 31.6 µM"},
      {"molecule": "NC(N)=NC(N)=NCCc1ccccc1", "activation": "inactive: 12.7%"},
      {"molecule": "Cn1c(-c2ccc3c(c2)OCO3)cnc1NCc1ccc(Cl)cc1", "activation": "inactive: -65.1%"},
      {"molecule": "COc1ccc(C(c2nnnn2C2CCCC2)N2CCc3ccccc3C2)cc1OC", "note": "(configuration not stated)", "Potency": "active: 7.94 µM"},
      {"molecule": "COCCn1c(SCc2csc(-c3ccccc3)n2)nc2ccccc21", "Potency": "active: 31.6 µM"},
      {"molecule": "C=CCOC(=O)C(C#N)c1nc2ccccc2nc1N1CCN(Cc2ccccc2)CC1", "note": "(configuration not stated)", "activation": "inactive: -64.4%"},
      {"molecule": "CCC(=O)Nc1nonc1-c1nc2ccccc2n1CC(C)C", "Potency": "active: 25.1 µM"},
      {"molecule": "C=CCn1c(SCC(=O)Nc2nc(C)cs2)nnc1C(CO)NC(=O)c1ccccc1", "note": "(configuration not stated)", "activation": "inactive: -42.8%"},
      {"molecule": "Oc1cc(O)c2c(c1)O[C@H](c1ccc(O)c(O)c1)[C@H](O)C2", "activation": "inactive: 1.52% [at 25.6 µM]"},
      {"molecule": "CCOC(=O)C(Cc1ccccc1)NS(=O)(=O)c1ccc(NC(C)=O)cc1", "note": "(configuration not stated)", "activation": "inactive: -5.22%"},
      {"molecule": "O=C(CC1N=C2c3ccccc3N=C(SCc3ccccc3Cl)N2C1=O)NCc1ccco1", "note": "(configuration not stated)", "Potency": "active: 15.8 µM"},
      {"molecule": "CCC(C)O", "note": "(configuration not stated)", "activation": "inactive: -9.18%"},
      {"molecule": "Nc1ccn([C@H]2CC[C@@H](CO)O2)c(=O)n1", "activation": "inactive: 23.5%"},
      {"molecule": "CSc1nnc2c3cc(C)ccc3n(Cc3ccccc3)c2n1", "Potency": "active: 15.8 µM"},
      {"molecule": "COCC(C)OC(=O)C(C#N)c1nc2ccccc2nc1N1CCN(Cc2ccccc2)CC1", "note": "(configuration not stated)", "activation": "inactive: -33%"},
      {"molecule": "C=CCNC(N)=S", "activation": "inactive: 2.87%"},
      {"molecule": "Cc1ccc(C)c(N2CCN(C(=O)C3CCCN(S(=O)(=O)c4c(C)[nH]c(=O)[nH]c4=O)C3)CC2)c1", "note": "(configuration not stated)", "activation": "inactive: -58.1%"},
      {"molecule": "CC1CCCCC12NC(=O)N(CC(=O)NCCc1ccccn1)C2=O", "note": "(configuration not stated)", "activation": "inactive: -61.9%"}
    ]}
  ]
}
